# Measured values from PubChem BioAssay AID463173 (ICCB-Longwood Screening Facility, Harvard Medical School, 2010).
# The whole screen tested about 52,000 compounds, of which about 4,300 (8.3%) were called active. Rule as the data show it: active = survival mostly below about 52% (no sharp cut-off); inactive = mostly above about 56%. This is one part of the list.
# System: DeltatarO mutant
# Assay: S. aureus survival, RN4220 and DeltatarO strains – OD600, teichoic acid synthesis inhibitors, primary screen (AID 463173)
# Settings: S. aureus RN4220 wild type/DeltatarO growth, OD600, 18 h, active compounds read low, screened at 18.75 µg/mL (by protocol)
row,SMILES,survival
1,CCCCC(=O)Nc1ccc(OCc2cc(=O)n3c(C)csc3n2)cc1,inactive: 102%
2,COC(=O)CCCCCn1c(-c2ccccc2)cn2c3c(=O)n(C)c(=O)n(C)c3nc12,inactive: 128%
3,COC(=O)c1oc2ccc(Cl)cc2c1C,inactive: 65%
4,CC(=O)c1cccc(NC(=O)[C@H]2O[C@@H]3OC(C)(C)O[C@@H]3[C@H]3OC(C)(C)O[C@H]32)c1,inactive: 117%
5,COc1ccc(-c2nc3scc(CCNS(=O)(=O)c4ccc(Oc5ccccc5)cc4)n3n2)cc1,inactive: 81%
6,CCOC(=O)c1ccc(NC(=O)C(C)Sc2nc(=O)cc(N)n2CCc2ccccc2)cc1 (stereo not drawn),inactive: 66%
7,COc1ccc(OCC(=O)N(Cc2sccc2C)C2CCS(=O)(=O)C2)cc1 (stereo not drawn),inactive: 77%
8,CS(=O)(=O)N(CC(=O)NCc1ccncc1)c1ccccc1,inactive: 85%
9,CCN(CC)CCCNC(=O)c1cn(CC(C)C)c(=O)c2c1c1ccccc1n2C,inactive: 153%
10,COc1ccc(-c2nnc(SCC(=O)N3CCc4ccccc43)o2)cc1OC,inactive: 75%
11,Cc1ccc2nc(-c3ccsc3)c(Nc3ccc(Cl)cc3)n2c1,inactive: 73%
12,Cc1cccc(-c2noc(-c3ccccc3OCC(=O)Nc3ccccc3[N+](=O)[O-])n2)c1,inactive: 94%
13,Cc1ccn2cc(CNC(=O)c3cccc(C(F)(F)F)c3)nc2c1,inactive: 97%
14,COc1ccccc1Nc1c2c(nc3ccc(NC(=O)c4ccccc4F)cc13)CCCC2,inactive: 82%
15,COCCN=Cc1c(NCCOC)nc2ccccn2c1=O,inactive: 103%
16,COc1ccc(Cn2nnnc2CN2CCC(NC(=O)c3cccc(OC)c3)CC2)cc1,inactive: 111%
17,COC(=O)c1sccc1S(=O)(=O)N(CC(=O)NCc1ccc(C)cc1)c1ccc(C)c(C)c1,inactive: 68%
18,CCOc1ccc(N2C(=O)CC(N3CCC(O)(c4ccc(Cl)cc4)CC3)C2=O)cc1 (stereo not drawn),inactive: 86%
19,COc1ccc(CCN(Cc2nc3ccccc3c(=O)[nH]2)C(=O)C(C)C)cc1,inactive: 101%
20,Cc1cc(NC(=O)c2cc(Cl)ccc2Cl)ccc1-c1cc2ccccc2oc1=O,inactive: 121%

row,SMILES,survival
1,COc1cccc(N(CC(=O)N2CCC(C(N)=O)CC2)S(C)(=O)=O)c1,inactive: 95%
2,NS(=O)(=O)c1ccc(NC(=O)COc2ccc(S(=O)(=O)NC3CCCCC3)cc2)cc1,inactive: 75%
3,CCN(CC)C(=O)Cn1c(=O)n(Cc2ccc(C(=O)NCCCOC)cc2)c(=O)c2ccccc21,inactive: 80%
4,Cc1ccc(C)c(N2C(=O)N(Cc3cccc(C(F)(F)F)c3)c3ccccc3S2(=O)=O)c1,inactive: 88%
5,CCn1c2c(c(=O)n3ncc(C(=O)N4CCN(c5ccc(C(C)=O)cc5)CC4)c13)CN(Cc1ccc(OC)cc1)CC2,inactive: 126%
6,Cc1ccc(C)c(NC(=O)N2CCN3CCCCC3C2)c1 (stereo not drawn),inactive: 69%
7,COc1ccc(F)cc1S(=O)(=O)Nc1ccc2c(c1)CCCN2C(=O)c1cccs1,inactive: 73%
8,COc1ccc(C(=O)CCC(=O)Nc2ccc(F)cc2F)cc1,inactive: 84%
9,CCOC(=O)c1c(NC(C)=O)sc2c1CCC2,inactive: 77%
10,CN1C(=O)c2ccccc2Sc2ccc(NC(=O)NCc3ccc(Cl)cc3)cc21,inactive: 96%
11,Cc1ccc(CCNC(=O)CN2C(=O)COc3ccc(S(=O)(=O)N4CCCCCC4)cc32)cc1,inactive: 80%
12,O=C(Nc1cccc(Cl)c1)c1cc(-c2ccc3c(c2)OCO3)on1,inactive: 77%
13,COc1cc(OC)cc(C(=O)Nc2ccc3nc4n(c(=O)c3c2)CCCCC4)c1,inactive: 95%
14,COc1ccccc1C(=O)Oc1c(Sc2ccccc2)c(C)nn1-c1ccccc1,inactive: 62%
15,COc1cccc(-n2nnc(-c3nc(-c4cccs4)no3)c2N)c1,inactive: 74%
16,COc1ccc(NS(=O)(=O)c2ccc3[nH]c(=O)ccc3c2)cc1OC,inactive: 98%
17,CCOc1ccc(S(=O)(=O)Nc2cccc(OC)c2)c2cccnc12,inactive: 101%
18,O=C1CS(=O)(=O)C2(C(=O)N(Cc3ccccc3)c3ccccc32)N1c1ccc(F)c(Cl)c1 (stereo not drawn),inactive: 83%
19,N#Cc1c(NC(=O)CN2CCCCC2)sc2c1CCC2,inactive: 103%
20,CC(=O)c1ccc(NC(=O)CSc2cn(CC(=O)N(C(C)C)C(C)C)c3ccccc23)cc1,inactive: 68%

row,SMILES,survival
1,CCS(=O)(=O)N1CCc2cc(C(=O)Nc3cccc(C(C)=O)c3)ccc21,inactive: 50%
2,CCCCN(CC)C(=O)CCNS(=O)(=O)c1ccc2c(c1)c(=O)n(C)c(=O)n2C,inactive: 105%
3,CCCOc1cccc(C2c3c(-c4ccccc4O)n[nH]c3C(=O)N2Cc2ccco2)c1 (stereo not drawn),active: 2%
4,O=C1c2ccccc2C(=O)N1CNc1ccccc1C1CC1,inactive: 89%
5,COc1ccc(C2=NS(=O)(=O)N(C)C(C(=O)N(C)Cc3ccccc3)=C2)cc1OC,inactive: 79%
6,Cc1ccccc1OCc1nc2ccccc2n1Cc1ccccc1Cl,active: 0%
7,CC(C)(C)C1(O)CC(C(F)F)=NN1C(=O)c1ccccc1 (stereo not drawn),inactive: 87%
8,CCCNC(=O)C1Cc2cc(S(=O)(=O)N3CCCCCC3)ccc2N1C(C)=O (stereo not drawn),inactive: 94%
9,CCCNC(=O)Cn1c(=O)c2cccn2c2cccnc21,inactive: 79%
10,CCCn1cnc2cc(NCc3ccccc3OCC)ccc21,active: 35%
11,COC(=O)c1ccc(C(=O)OC)c(NC(=O)c2cc3nc(-c4ccc(C)cc4)cc(C(F)(F)F)n3n2)c1,inactive: 83%
12,CC(C)CCNc1ncnc2c1nnn2Cc1ccccc1,inactive: 73%
13,COc1ccc(NS(=O)(=O)c2ccc(-c3cnc(C4CC4)o3)cc2)cc1Cl,inactive: 124%
14,Cc1cc(C)cc(Nc2cc(C(=O)NCCCN(C)C3CCCCC3)c3ccccc3n2)c1,inactive: 62%
15,Cc1ccc(Cl)cc1N1CCN(C(=O)c2ccc(CS(=O)c3ccccc3)o2)CC1 (stereo not drawn),inactive: 126%
16,O=C(CCSCc1cnn(-c2ccccc2)c1-n1cccc1)NCc1ccccc1Cl,active: 54%
17,COCCNC(=O)c1nn(-c2ccc(C)cc2)c(=O)n(C)c1=O,inactive: 74%
18,CCc1cc(=O)oc2c(C)c3c(cc12)CN(CCc1ccccc1OC)CO3,inactive: 51%
